Laboratory results published in the supplement of paper PMC11417369.
Some of the results follow.

The sequences below were run on PfSIP2 AP2 domain 1 (GST-tagged) (assay: gcPBM binding intensity (ln(normalized median fluorescence intensity)); higher = stronger DNA binding).
How it was run: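 For binding intensity, the highest Masliner-normalised natural-log median intensity across replicate spots of either probe orientation was taken. Protein bound to the array was stained with Alexa488 anti-GST antibody and scanned at 488 nm. The protein, GST-tagged P. falciparum DNA-binding domains from E. coli at about 25 μg on average, had been applied for 1 h to an Agilent 4 × 180k array of primer-extended double-stranded 36-bp intergenic genomic probes and negative controls.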

Sequence	gcPBM binding intensity (ln)
TTTTTTAAATTTTGAATTATAACTACATTAAAGAAA [GTGCAC_negctrl_site279]	6.84
TGTTGTAACAAAAGTACACACACATTTCTATAAATT [CACACA_site8894]	7.27
ATTACATAACAATATACACACTATTGATTAAAGAGA [CACACA_site5602]	6.99
ATAATATAAATAAAGCGTACTTAATTTTATATATAT [XGTACX_site4626]	7.17
TTTTTTTTTTTTTTTACACACTATAGGGAAAAAAAA [CACACA_site1916]	7.05
AAAAATATAATATATCTAAAATTTTTCATTAAATAT [XGTACX_negctrl_site274]	6.73
ACATATATATATTTATATATATATATATATATGTGA [CACACA_negctrl_site613]	7.44
ATAAATAAAAATACATGAACAGGTCAGGTTATTTTT [CACACA_negctrl_site1007]	6.67
TTATATATAGAATAAACATGCATTTGTATATGAATA [TGCATGCA_site604]	6.96
TCACATACATTACTTACACACCATATTAATATATAC [CACACA_site8047]	7.32
AATAAAAAATAAAAAATAAACAGTATACATATATAT [GTGCAC_negctrl_site31]	7.17
TGTATATAAACAAGGGGTACAATAATATAAATAAAT [XGTACX_site8675]	7.61
TCATATTAATTTGATAGTACATATACTTTGAAGTCC [XGTACX_site3767]	7.18
ATATATTTTATATGTGTGCACTATATATATATATAT	10.2
TATTTTATAATTTACCGTACATTAATTGTATTATTA [XGTACX_site5722]	6.99
ATATATTTTAAAGAAAGTACCCACCGTTTGAAGTCA [XGTACX_site2273]	7.33
ATTAATATATAACGTGCACACACACCGTTACGTATG [CACACA_site8543]	8.8
TGTTATATATATTGACTTAATAAATAAATAAATATA [GTGCAC_negctrl_site590]	6.83
TCTTATTTTATAAATATAAATATATATATATATATA [GTGCAC_negctrl_site479]	9.24

Sequence	gcPBM binding intensity (ln)
TTACAAAACACTTATACACACATATAAATATAAATA [CACACA_site7307]	7.26
CTCCTCATATAATTTTGTACATAAAAAATTACCATT [XGTACX_site3879]	7.31
TATTTTGCTCATCCATGTACACATAGATATATTTTA [XGTACX_site8244]	7.08
ATATTATGTGAAGAACGTACAAATTTTTACACTATA [XGTACX_site1485]	7.11
TTCTTTTCAGAAGGAAAGAATTATAACATATCATAA [XGTACX_negctrl_site548]	6.73
CTATAAATAACAGAAAGTACATATACATGGATATAT [XGTACX_site3317]	6.92
TTTCTAAATGTTTATATATATATATATATATAAATA [GTGCAC_negctrl_site397]	7.44
TAAAAGAAATAAGGTGCACACATATACATATATATA [CACACA_site8037]	11.8
AATATATCAAAAATTGGATAGTTTCTTATAAAAAAT [CACACA_negctrl_site39]	6.62
GTAAAAGTTAAAAAAACATGCAAAATTTAAAAAAAA [TGCATGCA_site637]	6.87
ATACATATATATATTCTACACACTTATAATATAATA [CACACA_site8782]	7.36
ACTATATTTGCCCTTTTAATCAGAACAAAAAAAAAA [CACACA_negctrl_site1051]	7.8
ATTATATTCCAAGTTTGTACATATATATAAAAGTAT [XGTACX_site1631]	7.32
AGTATAAAAATAAGCACACACACAAATATATATTTA [CACACA_site923]	7.24
ATAATATAAATATTAACACACATCCTTTTATGTATA [CACACA_site6685]	6.92
TTTTCTTTTACAAAGGGTACATAATTTAAATTCATA [XGTACX_site3876]	6.9
TTTCTTCTGCATTATGCACACTATAATTCGTTAAAA [CACACA_site5568]	8.08
AAAAAAAAAAAATCATGTACTTATTTTTCATTGTTG [XGTACX_site1542]	6.99
AAATAAGCATATACAAACATGCATACATATAAATAA [CACACA_negctrl_site246]	6.91

Sequence	gcPBM binding intensity (ln)
TATATGCACTTAATATGTACACAAAAAAAAAAAAAA [XGTACX_site6199]	8.72
TTTATATATTATACATGTACATATTTATTTATATAA [XGTACX_site3474]	7.11
CTTATATTAAAAACTTGTACACATGTTAAGAATTTT [XGTACX_site5857]	6.92
ATATTATAATTGAAGGTGCAAAATGTAATATAGATA [GTGCAC_site9661]	10.6
ATTATTATTTAAAAAAGTACATTGAAGTTCATAATA [XGTACX_site3575]	7.33
ATTCATTTTTTGGGGGGTACACCCTTTTAAACATTT [XGTACX_site4797]	8.41
TGAAATGATATATAAACACACATATATATATATATA [CACACA_site3511]	9.48
ATTTTTAATGTGATCACACATAAATATTATATATAT [CACACA_site5641]	7.34
GTATAAAAAAATATATGTACTTATTTACATATATAT [XGTACX_site4744]	7.17
CTGGAGTTAAAAATGTGTACCTAAAAAATTTTGTTC [XGTACX_site5554]	7.11
ATTATTATATATAAAACACACAATTTTGTTTTCACA [CACACA_site3965]	6.95
ATATAATAATATTAAAGTACATGCATATATATTTAT [XGTACX_site7422]	7.01
ACTATTTAAATGCAAAGTACTTTGATAATAAACAAT [XGTACX_site2608]	7.3
TAATATAACAAAAAAATAAAATAAAATAAAAAATAA [CACACA_negctrl_site109]	6.94
ATTTTTTAAAAAAACATACACACAAAAAAAAAAAAA [CACACA_site3936]	6.99
CATAATATCTCTTTGTGTACATATAGTTATTATTAT [XGTACX_site7688]	6.92
TATAAACATAAATATACACACAAACATATAGGTATT [CACACA_site6690]	6.87
CTTGTATATAAACACACACACACTTTCTTTTTTTAA [CACACA_site8602]	7.17
